Where “and” joins values, the source holds several entries; their conditions need not be identical. Equal entries are not always repeated. The whole screen tested about 410,000 compounds, of which about 7,200 (1.8%) were called active. The shares of active, inactive and inconclusive entries below differ from those in the screen. Calls follow the shape of the dose curve; as a rule, active = well fitted activation curve with a large enough effect; inconclusive = small, poorly fitted or top-dose-only effect, or another doubt; inactive = no such curve, though single readings can be large or run the other way. Potencies beside an inconclusive call are fits to weak or partial responses and may not hold up.
Assay: qHTS of TDP-43 Inhibitors; also: nearly all actives have a fitted effect of over 50% in size; as to growth rescue (activation): % of control where 0% means no effect
Settings: TDP-43 expressing yeast growth rescue, BacTiter-Glo, 24 h; growth rescue (activation): at 46.1 µM (top of the series) unless noted
Summary of the method: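 Cell-based yeast growth screen: TDP-43 expression induced in galactose, inoculum OD600=0.02 after raffinose pregrowth to mid-log. Read-out BacTiter-Glo luminescence at 24 hr, 30 deg C; inhibition of toxicity seen as signal increase.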
Potency is read from the fitted curve at half-maximal effect; tags tell the direction and shape of the fitted curve.

Potency, active:
Cn1ncc(Cl)c1C(=O)Nc1cccc(Cl)c1 7.08 µM
COc1ccc(C2=CC(=O)C[C@H](c3ccc(F)cc3)C2)c(F)c1F 15.8 µM
Cc1cc(Cl)cc(Cl)c1OCC(=O)NCc1ccco1 14.1 µM
Cc1ccccc1N(C)S(=O)(=O)c1nnc(NC(=O)c2ccccc2F)s1 20 µM and 12.6 µM
Cc1ccc(-c2csc3nc[nH]c(=S)c23)cc1 17.8 µM
CC(C)(C)c1ccc(OCCC(=O)OCC(=O)NC2CCCCC2)cc1 35.5 µM

Potency, inactive:
CCN1C(C(=O)c2ccccc2)=C(OC(=O)c2ccc(OC)cc2)c2ccccc2S1(=O)=O
O=C(O)c1cc(NCc2cccs2)ccc1N1CCOCC1
CCOc1ccc(Nc2nc3c(S(=O)(=O)c4cccc(Cl)c4)nnn3c3ccsc23)cc1
COc1ccc2nc(N3CCC(O)CC3)c(C#N)cc2c1
N=c1c(C(=O)NCC2CCCO2)cc2c(=O)n3ccccc3nc2n1CCCO (centres undefined)
COc1cccc(CNC(=O)CCn2nc(C)c3c(C)n(-c4ccccc4)nc3c2=O)c1
Nc1nonc1C(=O)NCCNC(=O)c1ccc(Cl)c(Cl)c1
O=C(CSc1nc2ccccc2nc1Cc1ccc(Cl)cc1)N1CCCc2ccccc21
O=C(Nc1ccc2oc(-c3cccc4c(Br)cccc34)nc2c1)c1ccc(F)cc1
CN(C)S(=O)(=O)c1ccc(N2CCCC2)c(C(=O)NCC(=O)Nc2ccc(F)c(F)c2)c1
COc1ccc(-c2onc(C)c2-c2cscn2)c(O)c1
CCn1c(=O)n(-c2ccc(C)c(F)c2)c(=O)c2sc3ccccc3c21
Cc1cc(=O)oc2cc(OCC(=O)N3CCOCC3)ccc12
COc1ccc(OC)c(/C=N/NC(=O)c2csc3ccccc23)c1

Potency, inconclusive:
Cc1ccc(NC(=O)c2sccc2C)cc1[N+](=O)[O-] 3.16 µM [activator, partial curve]
COc1ccccc1N1CCN(C(=O)c2cc(=O)c3cc(C)cc(C)c3o2)CC1 12.6 µM [activator, partial curve]
O=[N+]([O-])c1ccccc1NCc1ccc(Cl)cc1 8.91 µM [activator, partial curve]
CN(C)c1ccc(N2C(=O)CC(Sc3ccccc3C(=O)O)C2=O)cc1 (centres undefined) 3.16 µM [activator, single point]
Cc1cccc(NC(=S)NNc2ncc(C(F)(F)F)cc2Cl)c1 11.2 µM [activator, partial curve]
CCc1ccccc1NC(=O)CNC(=O)c1ccccc1OCc1c(C)noc1C 14.1 µM [activator, single point]
Cc1ccc(SCC(=O)N/N=C/c2ccco2)cc1 17.8 µM [activator, partial curve]
CN(C)/C=C/C(=O)c1cnc(-c2ccccn2)s1 35.5 µM [activator, single point]
Cc1cccc(-c2nc3ccccc3c(=O)[nH]2)c1 5.62 µM [activator, partial curve]
NNC(=O)c1cc2c(N3CCC(Cc4ccccc4)CC3)ncnc2s1 35.5 µM [activator, single point]
C=CCN=c1scc(-c2ccc(F)cc2)n1/N=C/c1ccccn1 31.6 µM [activator, single point]
COc1ccccc1CNC(=O)C[C@@H]1CC[C@H]2[C@@H](COC[C@H](O)CN2Cc2ccccc2)O1 0.501 µM [activator, full curve, poor fit]
COc1ccc(-c2noc(CCC(=O)N3CCN(c4cccc(C)c4C)CC3)n2)cc1 35.5 µM [activator, single point]
CC(C)NC(=O)c1cccc2c(-c3ccc(F)c(F)c3)coc12 22.4 µM [activator, single point]
Cn1nc(C(=O)NNc2c(F)c(F)cc(F)c2F)c2ccccc2c1=O 35.5 µM [activator, partial curve, poor fit]
COc1ccc(Nc2nnc(SCc3cn4c(C)cccc4n3)s2)cc1 1.78 µM [activator, partial curve, poor fit]
COC(=O)C[C@@H]1C=C[C@@H](NC(=O)CN(C)C)[C@@H](CO)O1 0.794 µM [activator, full curve]
COc1ccc(NC(=S)NC(=O)Cc2ccccc2)cc1 15.8 µM [activator, partial curve]
Cc1cc(C(F)F)n2nc(C(=O)Nc3cccc(Cl)c3C)nc2n1 10 µM [activator, partial curve]
COc1ccc(F)cc1S(=O)(=O)NCC(c1ccco1)S(=O)(=O)c1ccc(F)cc1 (centres undefined) 0.316 µM [activator, full curve]
Cc1ccc(NC(=O)CSc2nnc(-c3ccccc3Br)o2)cc1C 14.1 µM [activator, partial curve]
O=C(CN1C(=O)NC2(CCc3ccccc32)C1=O)Nc1ccc(Cl)cc1F (centres undefined) 14.1 µM [activator, partial curve]
COc1cccc(C(=O)NC2CCCc3ccccc32)c1 (centres undefined) 12.6 µM [activator, single point]
N#CC(C(=O)OCc1ccccc1)c1nc2ccccc2nc1N1CCOCC1 (centres undefined) 11.2 µM [activator, partial curve]
C=CCC1c2cccc(C(=O)O)c2C(=O)N1c1cccc(C)c1 (centres undefined) 31.6 µM [activator, single point]
CC(=O)N(C(C)=O)c1nc(-c2ccccc2)cn1/N=C/c1ccccc1 3.16 µM [activator, single point]
CCc1c(C)c(C#N)c2[nH]c3ccccc3n2c1=S 12.6 µM [activator, partial curve]
COc1ccc(NC(=O)c2ccc(COc3ccccc3Br)o2)cc1OC 15.8 µM [activator, single point]
CC1CC(C)CN(C(=O)C2CCN(S(=O)(=O)c3c(Cl)cccc3Cl)CC2)C1 (centres undefined) 8.91 µM [activator, partial curve]
Cc1ccc(C(=O)NNC(=S)NC(=O)c2ccc(Cl)cc2Cl)cc1 3.55 µM [activator, full curve, poor fit]
COc1cccc(C(=O)N(Cc2cccnc2)c2nc3c(OC)ccc(C)c3s2)c1OC 35.5 µM [activator, single point]
CCOC(=O)c1c(C)c(C(=O)NCc2ccc(OC)cc2)c(C)n1CC 2.24 µM [activator, partial curve]
Cn1c(=O)c2c(-c3ccccc3)n3c(c2n(C)c1=O)C(c1ccccc1[N+](=O)[O-])Nc1ccccc1-3 (centres undefined) 35.5 µM [activator, single point]
CCOC(=O)C1CCCN(c2c(C(=O)c3ccccc3)cnc3ccc(OC)cc23)C1 (centres undefined) 28.2 µM [activator, single point]
COc1nc(NCCc2ccc(OC)c(OC)c2)nc(Nc2ccccc2)n1 11.2 µM [activator, single point]
CNC(=S)N1N=C(c2ccc(C)cc2)CC1c1ccc(Br)cc1 (centres undefined) 17.8 µM [activator, single point]
CCOc1cc(C(=O)Nc2cc(C)on2)cc(OCC)c1OCC 12.6 µM [activator, partial curve]
CN(C)C=NC(=O)c1[nH]c2ccc(Cl)cc2c1-c1ccccc1 10 µM [activator, partial curve]
O=C(Nc1nnc(C2COc3ccccc3O2)o1)c1ccc(F)cc1 (centres undefined) 35.5 µM [activator, single point]
COc1cccc(-n2c(SCC(=O)Nc3cc(C)ccc3C)nc3c(oc4ccccc43)c2=O)c1 0.355 µM [activator, full curve, poor fit]
CSc1ccc(C(=O)C2CCCN(C(=O)c3nonc3C)C2)cc1 (centres undefined) 17.8 µM [activator, single point]
CC(=O)c1ccc(N2CCN(C(=O)CCc3ccccc3)CC2)cc1 12.6 µM [activator, single point]
FC(F)(F)c1ccccc1Cc1c(-c2ccccc2)nc2c3ccccc3ccn12 35.5 µM [activator, partial curve, poor fit]
O=C(Nc1nc(-c2cccs2)cs1)c1ccc([N+](=O)[O-])o1 8.91 µM [activator, partial curve]
CCOC(=O)C1CCCN(C(=S)Nc2cccc(Cl)c2)C1 (centres undefined) 17.8 µM [activator, partial curve]
CCCN(Cc1cccs1)C(=O)Nc1cc(Cl)c(OC)cc1OC 11.2 µM [activator, partial curve]
Cc1ccc(CN2CC34C=CC(O3)C(C(=O)NCc3ccc5c(c3)OCO5)C4C2=O)cc1 (centres undefined) 3.16 µM [activator, partial curve]

Growth rescue (activation), inconclusive:
O=C(Nc1c(Cl)cccc1Cl)Oc1cccc2cccnc12 -86.7% [activator]
COc1cccc(N2CCN(C(=O)c3ccc4ccccc4c3)CC2)c1 73.6% [activator]

Source: PubChem BioAssay AID652104 (National Center for Advancing Translational Sciences (NCATS), 2013)
